# Measured values published in the supplement of paper PMC9446081.
# Hit rate of the full screen: of about 39,000 compounds, about 220 (0.56%) showed activity. The list shows a part of the results.
# System: Escherichia coli K-12 BW25113
# Assay: relative growth (OD600 normalised to plate interquartile mean) (fraction); higher = less growth inhibition, active = 0.2 or less
# Settings: 50 µM; LB; incubation time: overnight (16-24 h)
# 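Note: static incubation at 37 °C against the wild-type strain, values averaged over two biological replicates.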
row,Compound,relative growth
1,C[N+]1(C)CCC(OC(=O)C(O)(c2ccccc2)C2CCCC2)C1.[Br-] (stereo not drawn),inactive: 0.933
2,COc1ccc(COC[C@@]23Oc4ccccc4[C@@H](NC(=S)N2C)[C@@H]3CO[Si](C)(C)C(C)(C)C)cc1,inactive: 1
3,N=c1c(C(=O)NC[C@H]2CCCO2)cc2c(=O)n3ccccc3nc2n1CCCN1CCOCC1,inactive: 0.989
4,COc1ccc2c3c([nH]c2c1)[C@@H](CO)N(Cc1ccccc1)C[C@]13CCN(CC1)C(=O)Nc1cccc(c1)F,inactive: 0.992
5,NCCN1CCO[C@@H](CC(=O)Nc2cc(Cl)cc(Cl)c2)C1=O,inactive: 0.914
6,O=c1[nH]cnc2c1ncn2C1OC(CO)C(O)C1O (stereo not drawn),inactive: 1.08
7,CC1C(=O)CCC1=O,inactive: 1.04
8,O=C(C[C@H]1C=C[C@@H](NC(=O)CN2CCOCC2)[C@H](CO)O1)NCCc1ccncc1,inactive: 0.978
9,C[C@H](C(=O)O)N1C(=O)CCC1=O,inactive: 0.956
10,O=C(CN1CCOCC1)N[C@@H]1CC[C@H](CCNC(=O)C2CCC2)O[C@@H]1CO,inactive: 0.989
11,C[C@@H]1CCCCO[C@@H](CN(C)Cc2ccc(C(F)(F)F)cc2)[C@H](C)CN([C@H](C)CO)C(=O)c2cc(NS(C)(=O)=O)ccc2O1,inactive: 0.994
12,COCCNC(=O)C[C@@H]1CC[C@H](NS(=O)(=O)c2ccc(C)cc2)[C@@H](CO)O1,inactive: 0.983
13,C[C@@H]1CCCCO[C@H](CN(C)C(=O)Nc2ccccc2)[C@H](C)CN([C@H](C)CO)C(=O)c2cc(NS(=O)(=O)c3cccs3)ccc2O1,inactive: 1.03
14,C=CC[C@H](CC(=O)N[C@@H](CO)Cc1ccccc1)C(=O)N[C@H](COC(=O)[C@@H](CC=C)Cc1ccc(F)cc1)Cc1c[nH]c2ccccc12,inactive: 1.04
15,C[C@@H]1CN([C@H](C)CO)C(=O)c2cc(NS(=O)(=O)c3ccc(F)cc3)ccc2O[C@@H](C)CCCCO[C@@H]1CN(C)Cc1ccccc1,inactive: 0.913
16,Fc1ccccc1-c1nc2ccn(Cc3ccc(-c4ccc(C(F)(F)F)cc4C(F)(F)F)nn3)cc-2n1,inactive: 1.01
17,COc1ccc(S(=O)(=O)Nc2cccc3c2O[C@@H](CN(C)C(=O)Nc2c(C)noc2C)[C@H](C)CN([C@@H](C)CO)C3=O)cc1,inactive: 1
18,CCCCC(=O)OC1(C(=O)CO)CCC2C3CCC4=CC(=O)CCC4(C)C3C(O)CC21C (stereo not drawn),inactive: 1.07
19,COc1ccc(C#Cc2ccc3c(c2)O[C@@H](CN(C)C(=O)CN2CCOCC2)[C@H](C)CN([C@H](C)CO)S3(=O)=O)cc1,inactive: 1.02
20,Cc1noc(C)c1NC(=O)N(C)C[C@@H]1OCCCC[C@@H](C)Oc2ccc(NC(=O)NC3CCCCC3)cc2C(=O)N([C@H](C)CO)C[C@H]1C,inactive: 0.988
21,COc1ccc(NC(=O)N(C)C[C@H]2OCCCC[C@H](C)Oc3ccc(NS(=O)(=O)c4ccc(OC)cc4)cc3C(=O)N([C@@H](C)CO)C[C@@H]2C)cc1,inactive: 1.02

row,Compound,relative growth
1,O=C(Cc1ccncc1)Nc1ccc2c(c1)[C@@H]1C[C@H](CC(=O)N3CCc4ccccc4C3)O[C@H](CO)[C@@H]1O2,inactive: 0.999
2,CO[C@H](CN(C)C(=O)c1ccc2c(c1)OCO2)[C@@H](C)CN([C@H](C)CO)S(=O)(=O)c1ccc(F)cc1,inactive: 0.985
3,C[C@@H]1CN([C@H](C)CO)C(=O)c2cc(NC(=O)Nc3ccccc3)ccc2O[C@@H](C)CCCCO[C@@H]1CN(C)C(=O)NC1CCCCC1,inactive: 1.01
4,CC(=O)N1CCc2c(sc(N)c2C(N)=O)C1,inactive: 0.997
5,C[C@@H]1CN([C@@H](C)CO)C(=O)c2cccc(NC(=O)C3CC3)c2O[C@H]1CN(C)Cc1ccc2c(c1)OCO2,inactive: 0.968
6,COc1cc(C=CC(=O)O)cc(OC)c1O,inactive: 1.02
7,C#CCN([C@H](/C=C/C1CC1)[C@@H](O)Cc1ccccc1)[C@@H](Cc1ccc(-n2cc(CCC(=O)NO)nn2)cc1)C(=O)OC,inactive: 1
8,C[C@@H]1CN([C@H](C)CO)C(=O)c2cc(C#CC3(O)CCCC3)cnc2O[C@H]1CN(C)S(=O)(=O)c1cccc(F)c1,inactive: 1.01
9,C[C@H](CO)N1C[C@H](C)[C@@H](CN(C)C(=O)Nc2ccccc2)Oc2ccc(NC(=O)Nc3ccc(C(F)(F)F)cc3)cc2CC1=O,inactive: 1.03
10,O=C(O)[C@@H]1C(=CCO)O[C@H]2CC(=O)N12,inactive: 0.95
11,COCC(=O)N1C[C@H](C)[C@H](OC)CN(C)C(=O)c2cc(NC(=O)Nc3ccccc3)ccc2OC[C@H]1C,inactive: 0.988
12,COc1ccc([Si](C)(C)[C@@H]2[C@@H](CC(=O)N3Cc4ccccc4C[C@H]3CO)O[C@]3(C(=O)N(Cc4ccc(N5C(=O)c6cccc7cccc5c67)cc4)c4ccccc43)[C@H]2C)cc1,inactive: 1.06
13,O=C(C[C@H]1CC[C@H]2[C@@H](COC[C@H](O)CN2S(=O)(=O)c2ccc(Cl)cc2)O1)N[C@@H]1CCN(Cc2ccccc2)C1,inactive: 0.993
14,C[C@H]1CN([C@@H](C)CO)C(=O)c2cc(NC(=O)Nc3ccc(C(F)(F)F)cc3)ccc2O[C@@H]1CN(C)Cc1ccc(C(=O)Nc2ccccc2N)cc1,inactive: 1.03
15,C[C@@H]1CN([C@H](C)CO)C(=O)c2cc(NC(=O)NC3CCCCC3)ccc2O[C@@H]1CN(C)Cc1ccc(-c2ccccc2)cc1,inactive: 1.01
16,C[C@@H]1CN([C@@H](C)CO)C(=O)c2cc(NC(=O)Nc3cccc4ccccc34)ccc2O[C@@H]1CN(C)Cc1ccc(-c2ccccc2)cc1,inactive: 1
17,O=C(C[C@H]1CC[C@H]2[C@@H](COC[C@@H](O)CN2Cc2ccccc2F)O1)N[C@@H]1CCN(Cc2ccccc2)C1,inactive: 0.977
18,Cc1noc(C)c1NC(=O)N(C)C[C@H]1Oc2ccc(NC(=O)CCCN(C)C)cc2CC(=O)N([C@@H](C)CO)C[C@@H]1C,inactive: 1.02
19,Cc1cn([C@H]2C[C@H](F)[C@@H](CO)O2)c(=O)[nH]c1=O,inactive: 0.276
20,C[C@@H]1CN([C@H](C)CO)C(=O)c2cccc(NC(=O)c3cnccn3)c2O[C@@H]1CN(C)CC1CCCCC1,inactive: 0.989
21,C[C@H](CO)N1C[C@H](C)[C@H](CN(C)Cc2ccc(C(F)(F)F)cc2)Oc2ccc(NC(=O)Cc3cn(C)c4ccccc34)cc2C1=O,inactive: 1.03

row,Compound,relative growth
1,COc1cc(C(C)=O)ccc1O,inactive: 1.09
2,Cc1ccc(S(=O)(=O)N(C)C[C@@H]2OCCCC[C@@H](C)Oc3ccc(NC(=O)Nc4ccccc4)cc3C(=O)N([C@@H](C)CO)C[C@H]2C)cc1,inactive: 1.04
3,COc1ccc(NC(=O)N(C)C[C@H]2OCCCC[C@@H](C)Oc3ccc(NC(=O)c4ccncc4)cc3C(=O)N([C@@H](C)CO)C[C@H]2C)cc1,inactive: 1
4,COc1ccc2c3c(n(c2c1)C)[C@@H](CO)N(C[C@]13CCN(CC1)Cc1ccncc1)C(=O)CN1CCOCC1,inactive: 0.981
5,CC[C@H]1CN(C(=O)c2cnccn2)N1C,inactive: 0.98
6,C[C@@H]1CN([C@@H](C)CO)C(=O)c2cc(NS(=O)(=O)c3ccc(F)cc3)ccc2O[C@@H]1CN(C)S(=O)(=O)c1ccc(F)cc1,inactive: 1.02
7,Cc1noc(C)c1NC(=O)N(C)C[C@H]1Oc2ccc(NC(=O)c3ccncc3)cc2CC(=O)N([C@H](C)CO)C[C@H]1C,inactive: 0.976
8,C[C@@H]1CN([C@H](C)CO)C(=O)c2cc(NC(=O)Nc3ccc(F)cc3)ccc2O[C@H]1CN(C)S(C)(=O)=O,inactive: 0.997
9,Cc1noc(C)c1NC(=O)N(C)C[C@@H]1Oc2ccc(NC(=O)Cn3cnnn3)cc2C(=O)N([C@H](C)CO)C[C@@H]1C,inactive: 0.996
10,CCNc1nc(OCCO)nc(N(C)C)n1,inactive: 1.01
11,COc1ccc(CN(C)C[C@H]2Oc3c(NC(=O)c4ccc(-c5nccs5)cc4)cccc3C(=O)N([C@@H](C)CO)C[C@H]2C)cc1,inactive: 0.982
12,O=C1O[C@H](c2ccccc2)[C@H](c2ccccc2)N2[C@H]1[C@@H](C(=O)N1CCN(c3ncccn3)CC1)[C@]1(C(=O)Nc3ccc(C#CC4=CCCCC4)cc31)[C@H]2c1ccc(O)cc1,inactive: 1.04
13,C[C@@H]1CN([C@@H](C)CO)S(=O)(=O)c2ccc(-c3ccc(F)cc3)cc2O[C@@H]1CN(C)C(=O)C1CCOCC1,inactive: 0.98
14,Nc1ccn[nH]1,inactive: 1.02
15,C[C@@H]1CN([C@@H](C)CO)C(=O)c2cccc(NS(C)(=O)=O)c2O[C@@H]1CN(C)C(=O)Nc1ccc(C(F)(F)F)cc1,inactive: 0.997
16,CO/N=C1\C[C@]2(C[C@@H]3C[C@@H](C/C=C(\C)C[C@@H](C)/C=C/C=C4\CO[C@@H]5[C@H](O)C(C)=C[C@@H](C(=O)O3)[C@]45O)O2)O[C@H](/C(C)=C/C(C)C)[C@H]1C,inactive: 0.994
17,C[C@@H]1CN([C@H](C)CO)C(=O)c2cc(NC(=O)Cc3cn(C)c4ccccc34)ccc2O[C@H]1CN(C)Cc1ccc(Oc2ccccc2)cc1,inactive: 0.974
18,C[C@@H]1CCCCO[C@@H](CN(C)Cc2ccccc2)[C@@H](C)CN([C@@H](C)CO)C(=O)c2cc(NC(=O)Nc3ccc(C(F)(F)F)cc3)ccc2O1,inactive: 1.03
19,C[C@H]1CCCCO[C@H](CN(C)Cc2ccc(C(=O)Nc3ccccc3N)cc2)[C@@H](C)CN([C@@H](C)CO)C(=O)c2cc(N(C)C)ccc2O1,inactive: 0.982
20,CCOC(=O)CN1CCN(C=O)CC1,inactive: 1.01
21,CCCCCCCCCCCCCCCCOP(=O)([O-])OCC[N+](C)(C)C,inactive: 1
